{"source": "paper PMC12136788", "binders": {"B1": {"name": "chr13:28239862:28239863:+_ENSG00000186184_ENST00000399697|hu_hu|motif|central (ssRNA)", "RNA": "GGGAGUUCUACAGUCCGACGAUCCUCUUUAUGAGAGGGCAAUGUGUUUUUAAUUGUGUUAAUUAGAAAUCUUUUAUUGGUGCGGGCAAGAGGACACUUCAUCCAACCCAUGGGUCCCAUUGUUUCAGCUCUAGUUUUCCCACGCAACAGAGGAUUGAGCAUCA"}, "B2": {"name": "chr7:141441981:141441982:+_ENSG00000106028_ENST00000265304|hu_mus|hu_hu_hu_mus_False|88_88 (ssRNA)", "RNA": "GGGAGUUCUACAGUCCGACGAUCCUCAUGUCUUACAAACUGACGAAGUACCUGUAACACAGGUCUUCGAAACAUGGCUUCUGUUUUUCUUACAACCUAAUCUUUAGGCUUUUCCUAAAGGAAAGAAAGAAAAGAGAAAAAUGACAACAGAGGAUUGAGCAUCA"}, "B3": {"name": "chr7:37554838:37554839:+_ENSMUSG00000021217_ENSMUST00000021641|mus_mus|FALSE|FALSE (ssRNA)", "RNA": "GGGAGUUCUACAGUCCGACGAUCGACCGGUGUCUCCAUGAUGGGCUUCCCCUUCUUCAUGGCCGAGUUUGUGACCUUGAUAAAGUGGCCAGUGACCAUCAUGUGAGCUGUGAGCUCCUGGAGCGUGUCAUGGGAGCUUCCACACAACAGAGGAUUGAGCAUCA"}, "B4": {"name": "chr2:202488911:202488912:-_ENSG00000155755_ENST00000286196|hu_mus|hu_hu_hu_mus_False|48_48 (ssRNA)", "RNA": "GGGAGUUCUACAGUCCGACGAUCAUUGAAACAUUUUUCAUAAUCUCCAGUAGCAUUUCAGCAUUAUGUAACAAAAGCUCAAUUGUAAAUACACAUGUCUUAUAAAAAUACACUUAAAAACACGAGUGGGGAGCGCAGGCGCCACAACAGAGGAUUGAGCAUCA"}, "B5": {"name": "chr2:103900078:103900079:+_ENSMUSG00000027180_ENSMUST00000028603|mus_mus|motif|central (ssRNA)", "RNA": "GGGAGUUCUACAGUCCGACGAUCGAAGUCUGGUCUGGUGUAGGCAUGGUGCACACAUCUAGCACUUGGGAGGCAAUCGAGCGGUAGACACCCUGAAUGUUGGACAUGCCAUGUGGAAUCGGGGGAUGGCAACAUUAAAGACCUCAACAGAGGAUUGAGCAUCA"}, "B6": {"name": "chr11:115359187:115359188:-_ENSMUSG00000020737_ENSMUST00000021083|mus_mus|FALSE|FALSE (ssRNA)", "RNA": "GGGAGUUCUACAGUCCGACGAUCGUACAUAAGAGUCUCUACACAUCAGGAACCAGAUCAUCUGUUCUUAGAAACAGUCUACUACUCCAGUCUACUACUAGAAAACACUCAUGCCAUGGCGCACAGACCCAGGAGUCAGACAGACAACAGAGGAUUGAGCAUCA"}, "B7": {"name": "chr16:94664741:94664742:+_ENSMUSG00000040785_ENSMUST00000117648|mus_hu|mus_mus_mus_hu_False|18_38 (ssRNA)", "RNA": "GGGAGUUCUACAGUCCGACGAUCUGGUACUGAUCUUGGUAGCUGAUAUUCAGGAGAAAGGCUGGCCAAGGGUGUAUAUAUGCUGGUGUACUGGGGCAGGCUAGGUAACACGUUUAUGUACGCUGGUGGUGUCUGGGUGAUAUCCAACAGAGGAUUGAGCAUCA"}, "B8": {"name": "chrX:21990627:21990628:+_ENSG00000102172_ENST00000404933|hu_hu|FALSE|FALSE (ssRNA)", "RNA": "GGGAGUUCUACAGUCCGACGAUCCACCCGCCCAGUACUGUCCUGACUCAAUUCUUUCAUUCUUUCCUCUACUUUGUUCAAAAUACUGUCGAUCUCUUCUUUGCCUUGCGCAUCACCAUCAUAACUCUGAAGGUCCAGCAACACCAACAGAGGAUUGAGCAUCA"}, "B9": {"name": "chr7:141441981:141441982:+_ENSG00000106028_ENST00000265304|hu_mus|hu_hu_hu_mus_False|28_38 (ssRNA)", "RNA": "GGGAGUUCUACAGUCCGACGAUCCUCAUGUCUUACAAACUGACGAAAUACCUGUAACACAGGUCUUCGAAACAUGGCUUCUGUUUUUCUUACAACCAGUCUAAUCUUUAGGCUUUUAAGGAAAGAAAGAAAAGAGAAAAAUGACAACAGAGGAUUGAGCAUCA"}, "B10": {"name": "chrX:140365796:140365797:-_ENSMUSG00000031285_ENSMUST00000033642|mus_mus|mus_mus_mus_hu_False|28_48 (ssRNA)", "RNA": "GGGAGUUCUACAGUCCGACGAUCCUUCUCAUUACUCAGUGCCUGCAAGGUUCUGGUUCGGUAGAAGCUACAGUGGGCGCUGUGAGUGGGACUUGGAAACCCAUUCAUCCGUGACCCUCGCAUGUUCCUGGAUGUCUUAUCUCUCAACAGAGGAUUGAGCAUCA"}, "B11": {"name": "chr16:70566459:70566460:+_ENSG00000189091_ENST00000302516|hu_mus|FALSE|FALSE (ssRNA)", "RNA": "GGGAGUUCUACAGUCCGACGAUCAAGGAAGUUGCCAUGUUCCUCCAAGGGUUCACUGUAUUUCCGAACCACAUGAUUUAAGCCAAGGUCCAGUUCAUAGAAAGUAAGUGUCUGCUGGGUAUUGGCUGCUGCUUCCCCUGUUGGCAACAGAGGAUUGAGCAUCA"}, "B12": {"name": "124027937_124028057_2223_ncRNA_ENSMUSG00000049550_ENSMUST00000125340|mouse|control|control (ssRNA)", "RNA": "GGGAGUUCUACAGUCCGACGAUCCUCACUCAUCAAGCACAGUGGAUAACCUUAAGGGGAGACGGGGCAGAGGCCUAUAUACAAUGACGGAAGUUCUCGUCCUGCACACUGCGUGGAGGUGCAUGUGGCUCCUUUUUACAUAUUCAACAGAGGAUUGAGCAUCA"}, "B13": {"name": "chr7:102950833:102950834:+_ENSG00000105819_ENST00000453466|hu_hu|motif|central (ssRNA)", "RNA": "GGGAGUUCUACAGUCCGACGAUCACCAUAUACAGUCCCCAUAAUCCUGUAUCUGUGUAGGAAGUGUUGAAAGACUGAAAGCGGUGGCAAAGAUUGCCAUGACAAGUGAGCUGGGCCAGCUUGCUAGAUAAAUUCAUUCCUCCCCAACAGAGGAUUGAGCAUCA"}, "B14": {"name": "chr22:32879901:32879902:+_ENSG00000100225_ENST00000397426|hu_mus|hu_hu_hu_mus_False|38_48 (ssRNA)", "RNA": "GGGAGUUCUACAGUCCGACGAUCCUCUUCCAUACUCAUGGCAUCCUGAAUUGACUCAGCUUCAACAUUUUGACUAGGCCCUUCCAUACUGUCGUCAUUCCAAACACCAAAUGGGGUGGCCUGUCCUUGGGAUGAAUCAGUCCCCAACAGAGGAUUGAGCAUCA"}, "B15": {"name": "chr17:23961646:23961647:+_ENSMUSG00000039218_ENSMUST00000088621|mus_hu|FALSE|FALSE (ssRNA)", "RNA": "GGGAGUUCUACAGUCCGACGAUCGCAUUUCUCAUUUUUAUUUGACAGAAAAAGUUGCUCUUGCUGUACAGAUUUUAAAAAACCAAAAUGCCUUUAAGAAACAUGAAAAGUUGGGGGGAGGGGUUCACAACCUCAUGGGGGACACAACAGAGGAUUGAGCAUCA"}, "B16": {"name": "chr1:46159212:46159213:+_ENSG00000159596_ENST00000372025|hu_mus|hu_hu_hu_mus_True|8_38 (ssRNA)", "RNA": "GGGAGUUCUACAGUCCGACGAUCUCUGAUCCCUCCCAAGAAAGCUAGGAAACCGGCUCCAUAAGCCAUCUGAGUGAAAGCUAGGACGGGGAUAUAAGUUUUUGUCAUUACCAUGAGAAGUGGGGGAGCAACGAAGGGGAUUAACAACAGAGGAUUGAGCAUCA"}, "B17": {"name": "chr20:21312971:21312972:+_ENSG00000088930_ENST00000377191|hu_hu|motif|central (ssRNA)", "RNA": "GGGAGUUCUACAGUCCGACGAUCUCCAAACUGAUUACAAAGACCACAUGGUUUGGGCUUGUUUGGUUUGAAUUCUUCUCGGAUAAUGGUAAAGUUCGGUUCAUGUGUGGCAAGGCCAAGCAUAAUGAGAUCAGCAUCUGCUCCCAACAGAGGAUUGAGCAUCA"}, "B18": {"name": "chr19:8913615:8913616:-_ENSMUSG00000071658_ENSMUST00000096259|mus_hu|mus_mus_mus_hu_False|28_58 (ssRNA)", "RNA": "GGGAGUUCUACAGUCCGACGAUCAGGGUACCAAAACCUUCUGCCUGAAAUGGGUGCCCCACCCAGUAGGGAGUUGCAGCUAAAAAUAUCUGAUGCAGAAGCAGUGAAUGCAGAGAAGGAGGCCCCUGGGGAGGGCCAGGCCAGCAACAGAGGAUUGAGCAUCA"}, "B19": {"name": "chr9:100896081:100896082:-_ENSMUSG00000032527_ENSMUST00000035116|mus_mus|FALSE|FALSE (ssRNA)", "RNA": "GGGAGUUCUACAGUCCGACGAUCGAAAUUGAAGAAUUCACGCAGGUUACACAGAGCAUCAACAUCAUUGUCGAAAGCUCUAUGGGCCACACCUGACACAGUGGUGUGGGUCUUGGCACCACCCAGCUGCUCUUGAGUGACAUCCAACAGAGGAUUGAGCAUCA"}, "B20": {"name": "chr8:97244095:97244096:-_ENSG00000156467_ENST00000518406|hu_mus|FALSE|FALSE (ssRNA)", "RNA": "GGGAGUUCUACAGUCCGACGAUCGCAGGCAUGGCCUGAUGCCUCAUGGUCAGGUCUUAACGCAACACUCUGUUGCCUCAAAGUCCUCAGGAAGCCUUCUUAUGACUUCUUUCACACUUCAGUCUCCUAUGCUGUGCCAUCUCACAACAGAGGAUUGAGCAUCA"}, "B21": {"name": "chr9:95050471:95050472:-_ENSG00000196305_ENST00000443024|hu_mus|FALSE|FALSE (ssRNA)", "RNA": "GGGAGUUCUACAGUCCGACGAUCGUCCCACCCGAAUCUUCUGUCAACGUGAAACCCGCUCUGGUGAGCGUAUCUCGUAACGAUAUCUUUGAUUGUCCCAGCAAGUAUGUGUCCAUAGUGAGGCAGUCCAGUAGCAAAGGGAGGCAACAGAGGAUUGAGCAUCA"}, "B22": {"name": "41527489_41527609_2659_CDS_ENSG00000100393_ENST00000263253|human|control|control (ssRNA)", "RNA": "GGGAGUUCUACAGUCCGACGAUCGGGAGACUGCCCAGGCUGCUGAUUCUGCUGGUUCUUUGCUUGCACCUGGGGUUGUGUCGGCAUCUGAUUUACUUGAUAGGGUAGUCCAAGAGCUGCAUAGGCUCUUUCUAUGGAGCUGGGCAACAGAGGAUUGAGCAUCA"}}, "note": "This is one part of the list."}
{"molecular_target": "T1, UNK ZnF1-3 (human, UniProt Q9C0B0 31-174)", "T1 sequence": "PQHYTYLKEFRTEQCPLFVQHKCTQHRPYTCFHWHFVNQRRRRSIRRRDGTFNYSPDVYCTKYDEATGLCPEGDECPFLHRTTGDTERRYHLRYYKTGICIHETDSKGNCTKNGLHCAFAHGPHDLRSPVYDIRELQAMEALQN", "assay": "nsRBNS (natural sequence RNA bind-n-seq); RBNS binding buffer (assumed for nsRBNS): 25 mM Tris pH 7.5, 150 mM KCl, 3 mM MgCl2, 0.01% Triton X-100, 500 ug/ml BSA, 20 U/ml SUPERase-In, 4 C; UNK is unkempt and MSI1 is Musashi-1; names of the RNAs are library labels; protein concentration not given here; high values mean tight binding", "units": {"binding signal": "enrichment R"}}
{"binder": "B1", "binding signal": 0.871}
{"binder": "B2", "binding signal": 0.576}
{"binder": "B3", "binding signal": 0.614}
{"binder": "B4", "binding signal": 0.977}
{"binder": "B5", "binding signal": 1.21}
{"binder": "B6", "binding signal": 1.2}
{"binder": "B7", "binding signal": 1.14}
{"binder": "B8", "binding signal": 0.997}
{"binder": "B9", "binding signal": 0.726}
{"binder": "B10", "binding signal": 0.595}
{"binder": "B11", "binding signal": 0.76}
{"binder": "B12", "binding signal": 1.32}
{"binder": "B13", "binding signal": 1.22}
{"binder": "B14", "binding signal": 0.844}
{"binder": "B15", "binding signal": 1.45}
{"binder": "B16", "binding signal": 1.4}
{"binder": "B17", "binding signal": 0.787}
{"binder": "B18", "binding signal": 1.88}
{"binder": "B19", "binding signal": 1.03}
{"binder": "B20", "binding signal": 0.541}
{"binder": "B21", "binding signal": 0.998}
{"binder": "B22", "binding signal": 1.22}
